44 sequences from the supplement of paper PMC11417369 can be followed below.

± gives the standard deviation of the averaged measurements. The list shows a part of the results.

For the assay, the system named is PfAP2-G AP2 domain (GST-tagged). The assay can be described thus: gcPBM binding intensity (ln(normalized median fluorescence intensity)); higher = stronger DNA binding. In a few lines: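 GST-tagged P. falciparum DNA-binding domains produced in E. coli were incubated for 1 h on an Agilent 4 × 180k array of primer-extended double-stranded 36-bp intergenic genomic probes with negative controls. Binding intensity is the highest Masliner-normalised natural-log median intensity across replicate spots of either probe orientation, with bound protein detected by Alexa488 anti-GST antibody at 488 nm.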
In the case of “ATATATTTATATTTATGTACATATCTTTATTTACGT [XGTACX_site6800]”, the “gcPBM binding intensity (ln)” value turned out to be 11.2 ± 0.55.

On to “ATATATATATCGATCTGTACATATATTTATAGACAT [XGTACX_site4236]”, for which the “gcPBM binding intensity (ln)” value turned out to be 11.2 ± 0.53. “TGCTTCCTTAGGAATGTACACACATATATAATATGT [CACACA_site8048]”: the “gcPBM binding intensity (ln)” value was 11.2 ± 0.49.

With “ATTAGTAAGAATCATTGTACATTATAATATGTGGTA [XGTACX_site1341]”, the “gcPBM binding intensity (ln)” value turned out to be 10.7 ± 0.5.

Consider “TTTTTAAAAAAGTAAAGTACAAAAAAAAGGAATATC [XGTACX_site588]”, for which the “gcPBM binding intensity (ln)” value came out at 11.3 ± 0.53. “AAAGAAATACAATGATGTACATTTAAAAAAAATTAA [XGTACX_site4324]”: the “gcPBM binding intensity (ln)” value was 11 ± 0.67. Consider “ACAAGAAAATATATTTGTACATATATAATTTTATTT [XGTACX_site548]”, for which the “gcPBM binding intensity (ln)” value stood at 10.8 ± 0.47. The result for TTGACCTTAAGAAGGTTGCACTAATCATTCAAAGTT reads 10.1 ± 0.17; that for “CTTTATTATAAGATTACACACATGTGTTATAATTTA [CACACA_site3169]”, 9.86 ± 0.042; that for “CCATTTATTATTTGGGGTACATTTAATTAATATTTT [XGTACX_site5940]”, 11.5 ± 1.

On to “TAATTTAGTATCTTTACATGCGGGCATTATGTCATA [TGCATGCA_site167]”, for which the “gcPBM binding intensity (ln)” value turned out to be 10.105 ± 0.007. The result for “ATTTAAGGGGTGTATGCACACGACTATTCCGTATGA [CACACA_site4738]” reads 10.23 ± 0.092. Then “AATATTTTAAGGCACACACACAAAAAAAAAAAAAAA [CACACA_site2890]”, with 10.2 ± 0.49; and “ATAGGCACTTTTTGCACACGTATGAATAACAAAATA [CACACA_site5069]”, with 10.6 ± 0.25; and “TGAAAATTTTAATGAGGAAATAAAATAAATATAATA [GTGCAC_negctrl_site159]”, with 9.86 ± 0.16. Consider “TTTATTAATAGACACACACACACACGCAAAATAAAA [CACACA_site6255]”, for which the “gcPBM binding intensity (ln)” value is 10.5 ± 0.45. For “CCAAAGGGGGTATACTGTACATATAGTGGTTATATA [XGTACX_site1515]”, the “gcPBM binding intensity (ln)” value came out at 11.3 ± 0.73. Turning to “AATGAAAAATGTATCGTTAAAGGGTATCTTAAGGAT [XGTACX_negctrl_site222]”, the “gcPBM binding intensity (ln)” value was determined as 10.1 ± 0.15. Then “CCAAAGAAATATAATACACACAAGAATATATTGGAT [CACACA_site6018]”, with 9.935 ± 0.049; and “AAGTATTACAACCACACACACACCTATATATTATAT [CACACA_site4158]”, with 10.09 ± 0.099.

Regarding “ACTTGTTTTCAATGTAAAATACAATTTTCATTTATT [CACACA_negctrl_site435]”, the “gcPBM binding intensity (ln)” value was 9.86 ± 0.11.

Regarding “AAAGGAAATTAAAATTGATTACATATATAAAAAAAC [XGTACX_negctrl_site196]”, the “gcPBM binding intensity (ln)” value turned out to be 9.93 ± 0.014. Take “AAAAAAAAAAGACACACACACAAATACAAATACATA [CACACA_site6334]”: the “gcPBM binding intensity (ln)” value is 10.1 ± 0.13. For the sequence “TTTTAAACAAAAAATTGTACAATTAGTGTATAATCC [XGTACX_site778]”, the “gcPBM binding intensity (ln)” value came out at 11 ± 0.69. Consider “AATTTAATATAATGCACACATAAAAAAAAAAAAAAA [CACACA_site123]”, for which the “gcPBM binding intensity (ln)” value stood at 9.92 ± 0.52. As to “AACACAAATAAGTATTTGGATTATATTACATTTATA [CACACA_negctrl_site465]”, the “gcPBM binding intensity (ln)” value came out at 9.71 ± 0.22. As for “ATAAAAATAAATAAATGTACATATATATATATATAT [XGTACX_site1277]”, the “gcPBM binding intensity (ln)” value stood at 11.1 ± 0.58. As to “TAAATAGGAAAACCTATACACACTTTAAAAAAAATA [CACACA_site1621]”, the “gcPBM binding intensity (ln)” value amounted to 9.845 ± 0.064. Then “TAAATTAAAAAAAAAAACAAAAAAAAAGCAACAAAA [CACACA_negctrl_site1318]”, with 9.84 ± 0.12.

Regarding “ATTTATTTCAATAAACTTCTTTTCTTTAACAATTAC [CACACA_negctrl_site1222]”, the “gcPBM binding intensity (ln)” value was found to be 9.845 ± 0.035. As for CTGTAAAATGTGATGGTGCATATTAATTTAGTTGTA, the “gcPBM binding intensity (ln)” value worked out at 10.07 ± 0.042. Regarding “AAATTAAAATATATATGTACATATATATATATATAT [XGTACX_site7844]”, the “gcPBM binding intensity (ln)” value was determined as 11.2 ± 0.54. The result for “GAGCTTTGGATGAAAGCATGCGATGAATGGATAAAA [TGCATGCA_site786]” reads 9.94 ± 0.028; that for “AGAAACGTAAGTTATACACACATGTCAAAAGAAAAA [CACACA_site312]”, 9.985 ± 0.092; that for “TATAAAAATGTGTATGTACACACTTTATTTTTAATA [CACACA_site2532]”, 11.4 ± 0.84. Then “AGTATTTCCATATGTACATGCAAAAGGAAAGATATA [TGCATGCA_site850]”, with 11.1 ± 0.62; and “TATTTTTCCCTATGCACACACACCGTATATATAATA [CACACA_site4758]”, with 10.3 ± 0.21; and “AAATATAAAAATAGCACACATATATACATATATATA [CACACA_site56]”, with 9.84 ± 0.11. Turning to “TGTCCAATTTTTTATCGTACATAATATATAAATAAA [XGTACX_site1705]”, the “gcPBM binding intensity (ln)” value turned out to be 11.3 ± 0.69.

In the case of “TTGTTAATATATATATGTACTTATTTATTTATTTAT [XGTACX_site2274]”, the “gcPBM binding intensity (ln)” value is 11.4 ± 0.93.

Regarding “ATCCATCTTTTATATAGTACTTTATAATATATATAT [XGTACX_site8064]”, the “gcPBM binding intensity (ln)” value turned out to be 10.9 ± 0.44.

On to “CAATGTTAATATAATACACACAATATGTATTTGTCT [CACACA_site1162]”, for which the “gcPBM binding intensity (ln)” value was 9.94 ± 0.099. For “GAAAAAAAAAAAAAAAGTACATGTCATAAATTGTAT [XGTACX_site1461]”, the “gcPBM binding intensity (ln)” value was 11.5 ± 1.1.

For “TTTTCCTTAACACACGTTTATATAAAAAATTAAAAT [XGTACX_negctrl_site115]”, the “gcPBM binding intensity (ln)” value was found to be 10 ± 0.33.
